The other results are listed elsewhere or left out.
B1: ENSG00000006432:stop:overlap|stop_codon|ENSG00000006432|stop_codon|NA|stop_codon (ssRNA)
RNA: GGGAGUUCUACAGUCCGACGAUCGAGCGGAACUGAACACACACAGGCCUGCCCCUUAUGAGAUCCAGCAGGAGUUCUGGUCUUAGCACGAAAAGGAUUGGGGCGGGCAAGGGGGACAGCCAGCGGAGAUGAGGGGAGCUGGCGCAACAGAGGAUUGAGCAUCA
B2: chr17:75827259:75827360:-|3pUTR|ENSG00000092929|unk|FALSE|unique (ssRNA)
RNA: GGGAGUUCUACAGUCCGACGAUCGGACAGUUUGGCUGCUGUGUCUGCUGCGCACGCCCCCUCCCCGGACAGCACCUGCCACCUAGAAACUUUCUUAGCAAAAAAAUUAAUAAAAACAAAUCCAUUGUCCUCUUAAAAUAUGCCCAACAGAGGAUUGAGCAUCA
B3: chr19:4409044:4409156:+|CDS|ENSG00000167670|unk|FALSE|unique (ssRNA)
RNA: GGGAGUUCUACAGUCCGACGAUCCUGUCAUGUGGGUUCUGACAUAGACUUUAGACCGAAACUUGUCAACGGGAAGGGUCCCUUAGAUAACUUUUUAAGAAAUAGAAUCGAAACCAGUAUUGGCCAGAGCACAGUCAUCAUUGACAACAGAGGAUUGAGCAUCA
B4: chr10:74120044:74120145:+|3pUTR|ENSG00000035403|msi1|total|mutant (ssRNA)
RNA: GGGAGUUCUACAGUCCGACGAUCAAAAAAAAUCCCUGAAUGAUGAUCCGAGACAUCACCGCUAAAAAACUACAUUUAUAAGCCCGGAUUUGUUAUAUGCAAAUAUUUUCUGCCUCUUCUUUUGUUCUGUUUAAAACAAUAAAACAACAGAGGAUUGAGCAUCA
B5: chr3:125228010:125228111:-|3pUTR|ENSG00000163848|msi1|FALSE|unique (ssRNA)
RNA: GGGAGUUCUACAGUCCGACGAUCAGUUCUCUUCAUAUUUCAUAACUACAUUUCAAUAAUUCUAAACUUUCUACAUUGAUUUUUAGAUACUUAUUUUUCAAGCUUGGUUUCUCAGCUGAUCAGAUGAAUUUAUUCAACUUCAAUCAACAGAGGAUUGAGCAUCA
B6: ENSG00000168795:stop:overlap|stop_codon|ENSG00000168795|stop_codon|NA|stop_codon (ssRNA)
RNA: GGGAGUUCUACAGUCCGACGAUCAGCACUCAAAGACUACCUGCCUGCGCUGGCAGAGCAGCAAUCUUCCCAGCACUUUGCUCUAGCUGUUUGUCCUUACAAGACAACGCUGAGGCCAGUUGUCAGACUGAAUUUCUUUUGGUACAACAGAGGAUUGAGCAUCA
B7: chr1:229660051:229660152:+|3pUTR|ENSG00000135763|msi1|total|mutant (ssRNA)
RNA: GGGAGUUCUACAGUCCGACGAUCCUCAUUCACCGUCUCAGUUACCCAGAUAACCUCGGUUGUCACCUUGGAGUAUCUUGUUGCCGUCCCUUUACUAUGUGUAUGUAUACCGAUGUGCAUAUAAAUAUAUACCGCCGCUAAAUUCAACAGAGGAUUGAGCAUCA
B8: chr1:64777895:64778004:+|CDS|ENSG00000162437|unk|total|mutant (ssRNA)
RNA: GGGAGUUCUACAGUCCGACGAUCGGAUUUGUGGAAUACAUGAAAAAGGACUUUGCUGCAAAGGCCCGACUGGAGCUAUUGGGCCGACAGUUGGGAGCAUCAGCACUCUUUGCACAAUGGAUGGAUGUUAAUCUAUUGGCUUCACAACAGAGGAUUGAGCAUCA
B9: chr6:149889094:149889339:-|three_prime_utr|ENSG00000164520|control|control|control (ssRNA)
RNA: GGGAGUUCUACAGUCCGACGAUCGGCAGCUCCCUUUAAAGGUCAAAAGCCUUCCCUGUGUGGGUGUCAGUGUGUGUGUGCGAUAGAAAAUUUGAUUGACUUCUCCGUGGGCUUCCUGUCUGGAGAGUCAGUGAUGGCUAUAAGCAACAGAGGAUUGAGCAUCA
B10: ENSG00000070961:be:win_6051|3pUTR|ENSG00000070961|bound_else_gene|NA|bound_elsewhere_windowed (ssRNA)
RNA: GGGAGUUCUACAGUCCGACGAUCCAGAAAUUUCCAGAGCAUUAUGUAGGUAGAAAAAAAUGCAAGCAAGCUGUUAAAGAUCUUGGAUCCCAUUAUAUAGUAUGUAUAGCUGAAAUCUGUAAUUCAAUCACUUUUUCUCUUUUACAACAGAGGAUUGAGCAUCA
B11: chr2:55866929:55867030:-|3pUTR|ENSG00000115380|msi1|FALSE|unique (ssRNA)
RNA: GGGAGUUCUACAGUCCGACGAUCAUUUAAGUCAGCCAAAGAAUAUUGUUACCUUAAAGCACUAUUUUAUUUAUAGAUAUAUCUAGUGCAUCUACAUCUCUAUACUGUACACUCACCCAUAAUUCAAACAAUUACACCAUGGUACAACAGAGGAUUGAGCAUCA
B12: chr6:119178661:119178762:-|3pUTR|ENSG00000111885|msi1|FALSE|unique (ssRNA)
RNA: GGGAGUUCUACAGUCCGACGAUCGAAAGAAGCUUUGCCAAUUUUACUUAUUCGUGAUCAAUCAAGGAAAAUCUAAUAAAUUUUAGGCCAAAUAAGAAUAUAGCAUAUUUAGUAUGGUUAUAGUCAACACAGAGAUCACAACUUCAACAGAGGAUUGAGCAUCA
B13: chr20:25297698:25297799:+|3pUTR|ENSG00000100994|msi1|FALSE|unique (ssRNA)
RNA: GGGAGUUCUACAGUCCGACGAUCCCCAAGAGAGAGGGCAGGGAACAGGCUACUGUCCUUCCCUGUGGAAUUGCCGAGAAAUCUAGCACCUUGCAUGCUGGAUCUGGGCUGCGGGGAGGCUCUUUUUCUCCCUGGCCUCCAGUGCAACAGAGGAUUGAGCAUCA
B14: chr18:3457781:3457936:+|CDS|ENSG00000177426|unk|FALSE|unique (ssRNA)
RNA: GGGAGUUCUACAGUCCGACGAUCCAACACUCCUCCCCCUACUCCACCGGACCUCAACCAGGACUUCAGUGGAUUUCAGCUUCUAGUGGAUGUUGCACUCAAACGGGCUGCAGAGAUGGAGCUUCAGGCAAAACUUACAGCUUACAACAGAGGAUUGAGCAUCA
B15: chr3:154276180:154276282:-|CDS|ENSG00000174953|unk|total|mutant (ssRNA)
RNA: GGGAGUUCUACAGUCCGACGAUCUCAUCCUGCCGACUGGAAUGACACUAAAUCCAGAGACUGUGCAGUACUGUCAGCUAUUACCGACUUGAUCAAAACACAGGAAAAGGCAACUCCCAGGAACUUUCCGCCACGAUUCCAGGACAACAGAGGAUUGAGCAUCA
B16: chr11:134151495:134151596:+|3pUTR|ENSG00000166086|unk|FALSE|unique (ssRNA)
RNA: GGGAGUUCUACAGUCCGACGAUCUAGUGCCAUGGGAACCAGGUCUGAAAAAGUAGAGAGAAGUGAAAGUAGAGUCUGGGAAGUAGCUGCCUAUAACUGAGACUAGACGGAAAAGGAAUACUCGUGUAUUUUAAGAUAUGAAUGCAACAGAGGAUUGAGCAUCA
B17: chr5:78475949:78476050:+|3pUTR|ENSG00000085365|msi1|FALSE|unique (ssRNA)
RNA: GGGAGUUCUACAGUCCGACGAUCACCCACUGAAAAUUAAUAAUGGUACUUAUGAUUAAAAACGCAUUUAAUACUAACUGCAGUAGUUCUUUCAAGAAUCUUUAGAGAUAAGGAUUGCACAUUGGAAAAGUAAACCAUGUUUCACAACAGAGGAUUGAGCAUCA
B18: chr1:6525536:6525637:-|3pUTR|ENSG00000162408|msi1|total|mutant (ssRNA)
RNA: GGGAGUUCUACAGUCCGACGAUCACAGUUUGUGUGCCAUUAAAACAGAGAUUCCUCAGAAAGUUCUUCAGGGACCUGGUUAUCCGAAUCAGGAUAAAAAUAAGGAAACUGGGGCCAUUACAAUGUACCGAGAAGGAAGGAAGACAACAGAGGAUUGAGCAUCA
B19: chr6:143501988:143502101:-|CDS|ENSG00000001036|unk|total|mutant (ssRNA)
RNA: GGGAGUUCUACAGUCCGACGAUCUUCAUGUGGAGGAAAUCUUUUGAUGAAUAUUGGGCCCACACCCGAUGGCACCAUUUCUGCCGUUUUUGAGGAGCGACUGAGGCAAAUGGGGUCCUGGCUAAAAGUCAAUGGAGAAGCUAUCAACAGAGGAUUGAGCAUCA
B20: chrX:13662881:13662996:+|CDS|ENSG00000176896|unk|FALSE|unique (ssRNA)
RNA: GGGAGUUCUACAGUCCGACGAUCUCGAAUUCUCUGUCUUCCCAAGACGUUGCAAAACUCAGUGAAAUGAUUGUGCCUGAAAAUAGAGCCAUUCAAUUGAAACCUAAGGAAGAGCAUUUUGGGGAUGGUGACCCUGAAUCCACUCAACAGAGGAUUGAGCAUCA
B21: chr12:39369705:39369875:-|CDS|ENSG00000139116|unk|FALSE|unique (ssRNA)
RNA: GGGAGUUCUACAGUCCGACGAUCGGGUAUUAUUUCUCGAGCUGUUAAACACCUUUUUAAGAGUAUUGAAGAAAAAAAACACAUAGCAAUUAAAAAUGGGCUUCCUGCUCCAGAUUUUAAAGUGAAUGCCCAAUUCUUAGAGGUCAACAGAGGAUUGAGCAUCA
B22: chr8:103442975:103443076:+|3pUTR|ENSG00000164934|msi1|FALSE|bound_elsewhere (ssRNA)
RNA: GGGAGUUCUACAGUCCGACGAUCGGACUAGAUUAAUUGCAAACAUUUUAGUUAUAUGUGUAGAGCUUUAUUGUUACUCCUUUUAGCUACCCUGAAAAAUGAUCCUUAAAGGUGGCCUAGUUGGUAAGACUGUUUUAUCCUUAACAACAGAGGAUUGAGCAUCA

These binders were tested against T1, UNK ZnF1-6 (called full-length) (human, UniProt Q9C0B0 30-357) (assay: nsRBNS (natural sequence RNA bind-n-seq); RBNS binding buffer (assumed for nsRBNS): 25 mM Tris pH 7.5, 150 mM KCl, 3 mM MgCl2, 0.01% Triton X-100, 500 ug/ml BSA, 20 U/ml SUPERase-In, 4 C; UNK is unkempt and MSI1 is Musashi-1; names of the RNAs are library labels; protein concentration not given here; high values mean tight binding).
T1 sequence: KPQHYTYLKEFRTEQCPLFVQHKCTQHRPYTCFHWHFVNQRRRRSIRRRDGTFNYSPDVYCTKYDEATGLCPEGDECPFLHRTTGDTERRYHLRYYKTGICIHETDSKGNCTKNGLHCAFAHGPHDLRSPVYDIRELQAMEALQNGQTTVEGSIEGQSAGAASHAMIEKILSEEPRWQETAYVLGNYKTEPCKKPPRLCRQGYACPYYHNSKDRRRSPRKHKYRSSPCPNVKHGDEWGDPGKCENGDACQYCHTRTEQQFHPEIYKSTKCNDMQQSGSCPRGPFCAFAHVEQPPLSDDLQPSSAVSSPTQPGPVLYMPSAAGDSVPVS
Binder B1 has a binding signal of 11.7 enrichment R. B2 was tested, and the binding signal was 25.7 enrichment R. Work on B3 yielded a binding signal of 7.95 enrichment R. Work on B4 yielded a binding signal of 0.68 enrichment R. B5 was tested, and the binding signal was 3.33 enrichment R. Binder B6 has a binding signal of 7.1 enrichment R. In the case of B7, the binding signal is reported as 0.318 enrichment R. B8 gave a binding signal of 0.468 enrichment R. For B9, the binding signal was 0.908 enrichment R. In the case of B10, the binding signal is reported as 3.07 enrichment R. For B11, the binding signal was 0.713 enrichment R. Binder B12 has a binding signal of 2.15 enrichment R. B13 gave a binding signal of 0.621 enrichment R. B14 gave a binding signal of 0.739 enrichment R. In the case of B15, the binding signal is reported as 0.522 enrichment R. With B16 the binding signal was 0.667 enrichment R. With B17 the binding signal was 0.536 enrichment R. In the case of B18, the binding signal is reported as 0.553 enrichment R. With B19 the binding signal was 0.836 enrichment R. B20 gave a binding signal of 0.385 enrichment R. Binder B21 has a binding signal of 2.36 enrichment R. B22 gave a binding signal of 6.96 enrichment R.
